# The campaign covered roughly 310,000 compounds. About 2,200 (0.71%) showed an effect of 50% or more. The effect is printed as a negative number. The list shows a part of the results.
# Target: human ether-à-go-go-related gene (hERG) potassium channel (human, UniProt Q12809)
# Test: primary screen, population patch clamp on CHO cells stably expressing hERG
# human ether-à-go-go-related gene (hERG) potassium channel, sequence (Q12809 whole entry, looked up): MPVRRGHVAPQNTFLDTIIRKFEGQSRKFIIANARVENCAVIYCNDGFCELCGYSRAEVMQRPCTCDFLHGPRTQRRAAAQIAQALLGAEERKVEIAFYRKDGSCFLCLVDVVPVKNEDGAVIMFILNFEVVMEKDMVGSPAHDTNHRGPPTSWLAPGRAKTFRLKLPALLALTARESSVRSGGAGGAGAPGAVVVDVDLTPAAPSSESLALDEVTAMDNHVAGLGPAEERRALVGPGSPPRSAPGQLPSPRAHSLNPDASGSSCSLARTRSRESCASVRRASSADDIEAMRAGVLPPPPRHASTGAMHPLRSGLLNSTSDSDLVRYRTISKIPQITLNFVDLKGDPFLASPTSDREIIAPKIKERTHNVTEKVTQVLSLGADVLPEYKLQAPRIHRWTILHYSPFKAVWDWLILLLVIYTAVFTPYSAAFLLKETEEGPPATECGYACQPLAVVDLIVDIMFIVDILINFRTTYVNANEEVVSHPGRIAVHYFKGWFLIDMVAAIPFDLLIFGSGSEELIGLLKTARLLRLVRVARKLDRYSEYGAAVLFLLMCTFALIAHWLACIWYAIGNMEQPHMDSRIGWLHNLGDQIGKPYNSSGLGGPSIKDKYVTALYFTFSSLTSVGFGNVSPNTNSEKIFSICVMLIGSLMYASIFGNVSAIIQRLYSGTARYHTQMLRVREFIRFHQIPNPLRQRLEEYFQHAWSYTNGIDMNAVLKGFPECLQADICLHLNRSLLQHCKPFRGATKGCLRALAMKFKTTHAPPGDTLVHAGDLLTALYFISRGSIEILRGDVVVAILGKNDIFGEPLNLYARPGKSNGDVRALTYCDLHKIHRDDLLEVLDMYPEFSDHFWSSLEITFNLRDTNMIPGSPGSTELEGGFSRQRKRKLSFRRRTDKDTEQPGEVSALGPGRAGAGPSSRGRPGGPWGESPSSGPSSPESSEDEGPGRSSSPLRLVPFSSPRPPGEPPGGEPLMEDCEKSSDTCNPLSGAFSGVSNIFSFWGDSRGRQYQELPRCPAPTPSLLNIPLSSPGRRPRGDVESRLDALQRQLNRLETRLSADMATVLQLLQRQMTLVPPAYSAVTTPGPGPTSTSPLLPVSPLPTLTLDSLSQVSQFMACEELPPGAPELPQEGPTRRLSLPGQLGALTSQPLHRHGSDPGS
row,SMILES,"hERG current change (%, negative = inhibition) at 1uM"
1,Cc1ccc(C(=O)NC2CCN(CC(=O)Nc3ccccc3Cl)CC2)cc1,-16.4%
2,CC(=O)Nc1ccc(NC(=O)C(F)(F)F)cc1,19.1%
3,CCOc1ccc(C(=O)c2cc3ccc(O)cc3oc2=O)cc1,13.1%
4,OCc1nc2ccccc2n1CC(O)Cn1ccc2ccccc21 (stereo not shown),11.2%
5,CCNCC(O)c1cccc(O)c1 (stereo not shown),10.8%
6,CCCCCCNC(=O)c1cc(S(=O)(=O)N2CCc3ccccc32)ccc1F,16.6%
7,COc1ccccc1N1CCN(C(=O)c2cc3cc(C)ccc3[nH]2)CC1,9.45%
8,CCc1noc(C)c1C(=O)Nc1nc(-c2ccc(OC)cc2)cs1,1.33%
9,COc1cccc(/C=N/N2CCN(c3ccncc3S(=O)(=O)N3CCCCC3)CC2)c1,11.5%
10,CCc1ccc(CN2CCC(Oc3ccc(C(=O)N4CCCCC4)cc3)CC2)cc1,-61.5%
11,COc1cc(C2NC(C(=O)O)Cc3c2[nH]c2ccccc32)cc(OC)c1OC (stereo not shown),6.63%
12,CC(=O)c1c(OC(=O)c2ccco2)c2ccccc2n1C,9.09%
13,CCOc1cc(/C=C2\C(=O)N(Cc3ccco3)C(C)=C2C(=O)OC)ccc1O,2.04%
14,Cc1ccc(-c2nnn(CC(=O)N(Cc3ccc(F)cc3)C(C(=O)NC3CCCC3)c3ccncc3)n2)o1 (stereo not shown),9.15%
15,COc1cc(/C=N/NC(=S)NCCN2CCOCC2)cc(OC)c1OC,0.872%
16,CC(=O)Oc1ccc2nc(/C=C/c3ccc(C=O)cc3)oc(=O)c2c1,12.6%
17,Cn1cccc1/C=N/n1c(-c2ccco2)n[nH]c1=S,8.26%
18,CCOC(=O)C(=NCC1CCCO1)NNc1cc(Cl)ccc1Cl (stereo not shown),2.2%
19,CCC(C)(C)NC(=O)/C=C/c1cc(OC)c(OC)c(S(=O)(=O)N2CCc3ccccc32)c1,2.79%
20,COC(=O)C1=C(c2ccc(S(C)(=O)=O)cc2)C[C@@H]2CC[C@H]1N2C(=O)NCCCOC(C)C,13.2%
21,COc1ccc2c(c1)OCC1=C2CCC2(C)C(=O)CC=C12 (stereo not shown),10.6%
22,N#CCc1c(C#N)c(N)nc(N2CCN(S(=O)(=O)c3ccccc3F)CC2)c1C#N,6.36%
23,CC(=O)c1ccc(NC(=O)CN2CCN(c3ccccc3)CC2)cc1.Cl,3.51%
24,O=[N+]([O-])c1ccccc1S(=O)(=O)N1CCN(c2ccc(F)cc2)CC1,1.19%
25,CN1CCC(OC(=O)Cc2ccc(Cl)cc2)CC1.Cl,9.51%
26,Cc1ccc(S(=O)(=O)CCc2nnc(NC(=O)c3cnccn3)s2)cc1,15%
27,CC1CCCN(C/C(O)=C(\C#N)c2nc3ccccc3[nH]2)C1 (stereo not shown),-8.95%
28,Nc1c(Cl)ncnc1N1CCOCC1,14.1%

row,SMILES,"hERG current change (%, negative = inhibition) at 1uM"
1,COc1ccc(-c2nn(-c3ccccc3)cc2C(=O)NC2CCC(C)CC2)cc1 (stereo not shown),14.9%
2,Cc1ccc(S(=O)(=O)N(CC(=O)NCc2ccncc2)Cc2ccccc2F)cc1,-53.2%
3,O=C(CC1Sc2ncnn2C1=O)Nc1ccc(Cl)cc1 (stereo not shown),7.42%
4,COc1ccc(C(=O)CN2CCN(c3ncccn3)CC2)cc1.O=C(O)C(=O)O,13.5%
5,O=C(c1cccc([N+](=O)[O-])c1)c1ccc2c(c1)C(=O)N(c1c[nH]c(=O)[nH]c1=O)C2=O,11.7%
6,COc1cc(-c2nc(CN3CCN(CC(C)C)C(=O)[C@@H]3C)c(C)o2)ccc1F,-2.5%
7,COc1ccc(N2CCN(C(=O)CCC(=O)N3CC(C)Oc4ccc(C)cc43)CC2)cc1 (stereo not shown),-2.69%
8,CC1CCCCC1NC(=O)COC(=O)COc1ccccc1Cl (stereo not shown),10.5%
9,Cc1cc(N2CCOCC2)nc2ccc(NC(=O)CCC(=O)N3CCN(c4ccc(F)cc4)CC3)cc12,21.6%
10,Cc1cnc(C(=O)OCc2nc3ccsc3c(=O)[nH]2)cn1,11.2%
11,Cc1ccc(NC(=O)CCn2c(=O)[nH]c3ccsc3c2=O)cc1,5.73%
12,COc1ccc(S(=O)(=O)NCC(=O)Nc2cccc(C)c2C)cc1OC,4.26%
13,CN(C)c1ccc(NC(=O)Cn2cc3c(n2)CCCC3)cc1,14.4%
14,CC(=O)Nc1sc2c(c1C(N)=O)CCN(Cc1ccccc1)C2.Cl,3.9%
15,CCn1cc(Br)c(C(=O)N2CCN(c3ccccc3)CC2)n1,8.45%
16,O=C(NCc1ccco1)/C(=C/C=C\c1ccccc1)NC(=O)c1ccc(Br)o1,-8.24%
17,COCC1CCCN(Cc2nc(C(c3ccccc3)c3ccccc3)no2)C1 (stereo not shown),0.832%
18,Cc1nccc2oc(=O)c(NC(=O)c3ccc(Cl)cc3)cc12,0.16%
19,CCC(C)(C(=O)NC1CCCC1)N(Cc1cccs1)C(=O)c1ccccn1 (stereo not shown),9.84%
20,O=C1c2ccccc2C(=O)C1c1ccccn1,8.84%
21,Cc1ccc(C(=O)N/C(=C\c2cn(-c3ccccc3)nc2-c2ccccc2)C(=O)N2CCOCC2)cc1,11.5%
22,Cc1ccc(NC(=O)c2cc(S(=O)(=O)N(C)C)ccc2N2CCCC2)cc1S(=O)(=O)N(C)C,5.68%
23,COc1ccc(NC(=O)COC(=O)CCCc2c[nH]c3ccccc23)cc1,-3.54%
24,COC(=O)C1=C(c2cc3ccccc3s2)C[C@@H]2CC[C@H]1N2C(=O)NCC1CC1,10.7%
25,O=C(Nc1ccc(Oc2cccnc2)cc1)c1cccc([N+](=O)[O-])c1,-1.33%
26,COC(=O)c1ccsc1NC(=O)CCc1ccccc1,16.6%
27,COc1cc(/C=C2/NC(=O)N(CC(=O)Nc3cccc(C)c3)C2=O)ccc1OCC(N)=O,18.7%

# Reference: paper PMC4336329 (PLoS ONE, 2015)
